Hit rate of the full screen: of about 110,000 compounds, about 230 (0.21%) showed an effect of 50% or more. The list shows a part of the results.
target: DPAP1 (Plasmodium falciparum, UniProt Q8IIJ9); experiment: primary screen, percent inhibition; read by cleavage of a fluorogenic dipeptide substrate; higher = more effect of the substance; set-up: species or system P. falciparum D10 trophozoite lysates; single well
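Further: 30 min substrate incubation versus DMSO and 10 µM JCP410 controls.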

Chain of DPAP1 (Q8IIJ9 whole entry, looked up): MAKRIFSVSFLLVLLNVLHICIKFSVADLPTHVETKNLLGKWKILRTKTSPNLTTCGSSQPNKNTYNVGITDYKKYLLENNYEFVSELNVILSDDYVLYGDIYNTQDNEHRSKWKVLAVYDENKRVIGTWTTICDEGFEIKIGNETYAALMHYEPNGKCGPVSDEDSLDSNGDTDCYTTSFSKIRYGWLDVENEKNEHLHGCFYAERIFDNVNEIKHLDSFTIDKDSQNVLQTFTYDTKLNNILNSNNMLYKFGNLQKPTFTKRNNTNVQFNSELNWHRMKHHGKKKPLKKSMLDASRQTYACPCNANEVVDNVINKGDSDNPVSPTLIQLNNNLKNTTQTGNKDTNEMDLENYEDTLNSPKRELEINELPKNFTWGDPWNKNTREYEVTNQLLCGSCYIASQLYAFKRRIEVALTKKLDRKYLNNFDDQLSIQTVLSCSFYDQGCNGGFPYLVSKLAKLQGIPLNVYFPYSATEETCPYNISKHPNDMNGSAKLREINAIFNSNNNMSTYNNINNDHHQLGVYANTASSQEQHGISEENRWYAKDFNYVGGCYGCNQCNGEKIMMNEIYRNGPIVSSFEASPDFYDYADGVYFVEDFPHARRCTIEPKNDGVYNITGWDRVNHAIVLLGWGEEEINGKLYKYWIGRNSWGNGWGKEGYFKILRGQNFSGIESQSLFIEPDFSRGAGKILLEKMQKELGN

Compound	% Inhibition @ 10 uM
CCCn1c2ccccc2n2c(C(=O)OC)c(C)nc12	0.132%
Cc1cc(C)c(NC(=O)c2c(Cl)c(C)nn2C)c(C)c1	0.777%
Cc1ccc(C(=O)O)c(C(=O)Nc2cccnc2)c1	2.25%
COc1cc(N)c2nc(OCc3ccc(Br)cc3)ccc2c1	0.528%
O=c1c2c(nc3n1CCOC3)sc1c(O)c(Br)ccc12	-5.35%
O=C(NCc1cccc(C(F)(F)F)c1)c1nc(-c2ccc(-n3cccc3)cc2)no1	-1.85%
N#C/C(=C/c1ccccc1)c1nc(-c2cccs2)cs1	-4.24%
COc1ccccc1OCCn1c(S)nc2ccccc21	-1.46%
Cc1oc(-c2ccc(C(=O)NCCc3ccc(Cl)cc3)cc2)nc1CS(=O)(=O)c1ccccc1	-3.31%
CC(C)CNC(=O)c1ccccc1NC(=O)c1ccc(C2SCC(=O)N2Cc2ccccc2)cc1 (stereo not shown)	0.635%
CCN(CC)C(=O)C1CCCN(Cc2cc(Br)c(O)c(OC)c2)C1 (stereo not shown)	2.33%
COc1ccc(Cc2nnn(CC(=O)O)n2)cc1	1.52%
O=C1c2[nH]nc(-c3ccccc3O)c2C(c2ccc(OCc3ccccc3)cc2)N1CCCO (stereo not shown)	0.366%
COc1ccccc1CC(C)NCc1ccc(C(F)(F)F)cc1 (stereo not shown)	1.26%
CSc1ncc(Cl)c(C(=O)N(Cc2ccccc2)Cc2ccco2)n1	-2.85%
CCCCN(Cc1ccccc1)Cc1cccnc1	1.74%
O=C(Nc1ccc(-c2ccccc2)cc1)c1ccco1	-0.128%
CCOc1c(Cl)cc(C2C3=C(O)CC(C)(C)CC3=NC3=C2C(=O)CC(C)(C)C3)cc1OC (stereo not shown)	-2.68%
CCC(C)S(=O)(=O)c1oc(-c2cccs2)nc1S(=O)(=O)c1ccc(C)cc1 (stereo not shown)	-1.22%
COc1cc(C=C2C(=O)N(C)C(=O)N(C)C2=O)cc(OC)c1O	13.2%
CC(CCc1ccco1)NC(=O)c1cccc2c1C(=O)N(C1CCCCC1)C2 (stereo not shown)	-0.499%
Cc1cc(CO)c(O)c(CCc2ccccc2)n1	-5.5%
COc1ccccc1CN1CCN(Cc2cccc(Br)c2)CC1	-3.49%
CS(=O)(=O)C1=NN2C(=N)/C(=C\c3ccc(-c4ccc(Br)cc4)o3)C(=O)N=C2S1	-7.16%
O=C(CCC1CCCCC1)N[C@@H](CCc1ccccc1)C(=O)c1nc2cc(C(F)(F)F)ccc2o1	1.35%

Compound	% Inhibition @ 10 uM
COc1cc(/C=C2/NC(=O)N(Cc3ccc(F)cc3)C2=O)cc(OC)c1OC	-6.05%
COc1cc2cccc(O)c(=O)c2c(O)c1OC	-7.75%
CCN1/C(=C/C2=CC(=O)CC(C)(C)C2)Sc2ccccc21	5.77%
COc1ccc(CCn2c(SCC(=O)Nc3cc(C)[nH]n3)nc3nccnc3c2=O)cc1OC	-3.73%
CCN1C(=O)C(O)(CC(=O)c2ccc(OC)cc2)c2ccccc21 (stereo not shown)	-0.992%
CCCc1nc(SC)ncc1C(=O)NCCCN1CCCCC1C (stereo not shown)	0.442%
C=CCNc1oc(COc2ccc(Br)cc2)nc1C#N	1.43%
CC(CN1CCN(CCO)CC1)c1ccccc1 (stereo not shown)	2.1%
O=C(c1ccc(-c2ccccc2F)o1)N1CCOCC1	-4.11%
COC(=O)c1cc(S(=O)(=O)N2CCCCC2)ccc1Cl	0.247%
Clc1cccc(N2CCN(CC(c3ccccc3)c3ccccc3)CC2)c1	-2.21%
O=C(NC1CCCc2ccccc21)C(Cc1ccccc1)NS(=O)(=O)c1cccc2nsnc12 (stereo not shown)	-1.43%
COc1ccccc1OCCCn1cc(C(=O)c2ccco2)c2ccccc21	-1.33%
C=CCOC(=O)C1=C(C)N=C(C)/C(=C(/O)OCC=C)C1c1ccccc1F (stereo not shown)	-5.63%
OC1CCCN(C2CCC(c3ccccc3)CC2)C1 (stereo not shown)	-2.03%
CSc1nc2n(n1)C(c1ccc(C)cc1)C1=C(O)CCCC1=N2 (stereo not shown)	-3.45%
CCCn1c(SCc2ccc(C)cc2)nc2c1c(=O)[nH]c(=O)n2C	3.65%
O=C(NCC1COc2ccccc2O1)c1cnn2c(C(F)(F)F)cc(-c3cccs3)nc12 (stereo not shown)	-6.16%
CCNc1oc(COc2ccccc2C)nc1C#N	5.18%
c1ccc(CCc2c[nH]c3ccccc23)nc1	2.7%
COc1ccc(C)cc1NC(=O)C(OC)c1ccccc1 (stereo not shown)	5.31%
COc1ccc(/C=C/C(O)=C2/C(=O)NC34CCCC3C2c2ccccc2O4)c(OC)c1OC (stereo not shown)	9.42%
COc1ccc(CNC(=O)Cn2ncn3cccc3c2=O)cc1	-5.15%
CCC(C)NC(=O)CN(c1cc(C)ccc1OC)S(=O)(=O)c1ccc(C)cc1 (stereo not shown)	-0.822%
CC(=O)Nc1ccc(N2CCn3c2cc(C)c(C#N)c3=O)cc1	-4.8%

Compound	% Inhibition @ 10 uM
CCCCCO/C(O)=C1/C(C)=Nc2ncnn2C1c1ccccc1OC(F)F (stereo not shown)	-1.71%
CCOC(=O)c1conc1-c1ccc2c(c1)OCO2	3.48%
COc1ccc(OC)c(-c2cnc(OC(C)(C)C)nc2OC(C)(C)C)c1	1.52%
COc1ccc(CNC(=O)Cc2ccc(Br)cc2)cc1	-5.45%
CCCNC(=O)CN(c1cc(Cl)ccc1OC)S(=O)(=O)c1ccccc1	1.87%
CCn1c(C(=O)N2CCCCC2)cc2sccc21	-6.68%
CCN(CC)CCN(CC)Cc1cc([N+](=O)[O-])ccc1Cl	-2.95%
OC(COCCOc1ccc(Br)cc1)CN1CCCCC1 (stereo not shown)	4.31%
CC1CCN(CC(O)COC2CC(C)CCC2C(C)C)CC1 (stereo not shown)	-4.94%
CCN(CC)c1ccc(CN2CC=C(c3ccc(F)cc3)CC2)c(O)c1	-0.0648%
CCOc1ccc(OCc2cccc(C(=O)OCC3CCCO3)c2)cc1 (stereo not shown)	-5%
CN(C)c1ccc(/C=C2\SC(N3CCN(Cc4ccccc4)CC3)=NC2=O)cc1	-5.11%
COc1ccc(C2CC(=O)N=C(NC(=S)NC(C)C)N2)cc1 (stereo not shown)	-7.01%
O=C(C[n+]1ccc2ccccc2c1)Nc1ccccc1	-0.305%
CCOCCCNC(=O)NC12CC3CC(CC(C3)C1)C2	0.231%
CCNC(=O)c1c(NC(=O)c2cc(=O)c3cc(Cl)ccc3o2)sc2c1CCCC2	1.9%
CCc1ccc(CNc2ccc(CNc3nc[nH]n3)cc2)cc1	5.08%
Cc1ccc(-n2nc3c(N4CCC(C(=O)NC5CCCCCC5)CC4)nnc(C)c3c2C)cc1	8.61%
O=S(=O)(c1ccc2[nH]c3nc(SCc4ccccc4Cl)nnc3c2c1)N1CCCCC1	-7.57%
COc1ccc(-c2cc(C(=O)Nc3ccccn3)c3ccccc3n2)cc1	-0.116%
COc1ccc(N2CCN(C3CC(=O)N(CCc4ccc(OC)c(OC)c4)C3=O)CC2)cc1 (stereo not shown)	-5.27%
O=C(c1cccc2ccccc12)n1nnc2ccccc21	6.12%
COc1cccc(-c2nnc(SCC(=O)NCCOc3ccccc3)n2-c2ccccc2)c1	2.8%
Cc1ccc(CN2CCC(CNS(=O)(=O)c3csc(C(N)=O)c3)C2)cc1 (stereo not shown)	1.9%
Cc1oc(-c2ccc(Cl)cc2)nc1CS(=O)CC(=O)NC(C)C (stereo not shown)	0.689%

Compound	% Inhibition @ 10 uM
Cc1ccc(N2C(=O)CC(NCc3ccccc3F)C2=O)cc1 (stereo not shown)	-4.56%
CCOC(=O)C1=C(c2ccc(Cl)cc2)C(=O)c2ccccc2C1=O	5.29%
O=C(CCCn1c(=O)c2sccc2n(Cc2cc(=O)n3ccccc3n2)c1=O)NCc1ccco1	-8.56%
CC1CCCCC1NC(=O)C1CCCCC1C(=O)O (stereo not shown)	0.472%
Brc1csc(CN2CCN(c3ncccn3)CC2)c1	-0.828%
CN1CCC(NCc2ccccc2F)CC1	-0.0494%
CC(C)c1ccc(C2c3c(-c4ccccc4O)n[nH]c3C(=O)N2Cc2cccnc2)cc1 (stereo not shown)	4.83%
COc1ccccc1-c1c(C)nn2c(SCC(=O)NCc3cccnc3)cc(C)nc12	-5.55%
O=C(NCCN1CCc2ccccc2C1)C1CCCN(c2ncnc3c2nc2n3CCCCC2)C1 (stereo not shown)	3.5%
COc1ccc(/C=C2\SC(=O)N(Cc3ccc(F)cc3)C2=O)cc1C	9.42%
CCOC(=O)N1CCC2(CC1)OC(=O)C(C)=C2C(=O)NCCC1=CCCCC1	-2.13%
COc1cccc(OCc2cc(C3C(C#N)=C(N)Oc4[nH]nc(C)c43)ccc2OC)c1 (stereo not shown)	4.08%
Cc1ccc(C(=O)Nc2c(C)cccc2C(C)C)o1	-0.0938%
Cc1ccccc1C(=O)Nc1ccc2nc(SCC(=O)N3CCCC3)sc2c1	1.02%
Cc1ccc2c(c1)-c1onc(C(=O)N3CCc4ccccc4C3)c1CO2	0.0281%
NC(=O)c1ccccc1NC(=O)CCCOc1ccc(Cl)cc1Cl	3.6%
COc1ccc(C(=O)N2CCC(Cc3ccccc3)CC2)cc1	1.83%
CC(C)C[C@@H](C(=O)NCC#N)c1cccc(-c2ccc(C(=O)N3CCC(N(C)C)C3)cc2)c1 (stereo partly shown)	-3.04%
COc1ccc(OC)c(/C=C2\N=C(c3cccc(C)c3OC)OC2=O)c1	-3.46%
COc1ccc(NC(=O)CN2C(=O)S/C(=C/c3ccc(O)c(OC)c3)C2=O)cc1	3.75%
O=C1c2ccccc2C(=O)N1c1nc[nH]n1	2.76%
c1ccc(C(CCNC2CN3CCC2CC3)c2ccccc2)cc1 (stereo not shown)	-0.0908%
CC(C)C[C@H](NC(=O)C1CCCC1)C(=O)NCC#N	-6.46%
CCCCNC(=O)CS(=O)Cc1nc(-c2ccc(C)cc2)oc1C (stereo not shown)	-2.85%
O=C1CC(c2cccc(F)c2F)c2c(O)nc(SCc3ccccc3)nc2N1 (stereo not shown)	5.39%

Source: PMC6919601, “Identification of Plasmodium dipeptidyl aminopeptidase allosteric inhibitors by high throughput screening” (PLoS ONE, 2019)
